# Source: PubChem BioAssay AID651820 (National Center for Advancing Translational Sciences (NCATS), 2012)
# In all, about 340,000 compounds went through this assay and about 12,000 (3.5%) were called active. Inconclusive means that the source gave no clear call. Such entries were picked first, then a sample of the others. Calls come from the whole dose curve; as a rule, active = well fitted inhibition curve with a large enough effect; inconclusive = small, poorly fitted or top-dose-only effect, or another doubt; inactive = no such curve, though single readings can be large or run the other way. No potency is given beside an inconclusive call; the fits are too rough.
# Assay: qHTS Assay for Inhibitors of Hepatitis C Virus (HCV)
# Details: Huh7.5.1 HCVcc-Cre (HCVcc is cell-culture hepatitis C virus) infection, luciferase reporter, 44 h; series mostly up to 41.8 µM
# Procedure, shortened: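 A cell-based infection assay in which seeded cells (1,000 per well) receive test compound after 4 h, are inoculated with HCVcc-Cre at approximately 0.5 moi, and are incubated 44 h before luminescence detection.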
# Potency is the fitted concentration of half-maximal effect; tags give direction and shape of the fitted curve.
row,SMILES,Potency
1,O=C(C1CCCCN1S(=O)(=O)c1ccccc1)N1CCN(C(c2ccccc2)c2ccccc2)CC1 (stereo not drawn),active: 12.6 µM
2,O=C(CSc1nc2ccc(Cl)cc2[nH]1)NC1CCCc2ccccc21 (stereo not drawn),"inconclusive [inhibitor, single point]"
3,O=C(CCSc1nc2ccccc2s1)N/N=C/c1c(O)ccc2ccccc12,active: 3.16 µM
4,O=C(NCCc1csc(-c2ccccc2)n1)c1cccs1,"inconclusive [inhibitor, full curve, poor fit]"
5,COc1ccc(CNCC(O)(c2ccc(F)cc2)c2ccc(F)cc2)cc1,"inconclusive [inhibitor, single point]"
6,COc1cc2sc(C)nc2c2sccc12,active: 2.24 µM
7,Cc1ccc(CNc2ncc(-c3ccccc3)n2C)o1,"inconclusive [inhibitor, single point]"
8,CC(C)CCn1c(SCc2ccc(Cl)cc2)nc2c1c(=O)[nH]c(=O)n2C,"inconclusive [inhibitor, single point]"
9,CCOc1ccc(C2=Nn3c(nnc3-c3ccc(OC)cc3)SC2)cc1,"inconclusive [inhibitor, partial curve]"
10,CCOc1ccc(CCNS(=O)(=O)c2c(C)nc3scc(C)n3c2=O)cc1OCC,inactive
11,Fc1ccc(NCc2ccccc2F)cc1Cl,inactive
12,COC(=O)C1=C(C)NC(C)=C(C(=O)OCC(C)C)C1c1ccccc1[N+](=O)[O-] (stereo not drawn),active: 25.1 µM
13,COc1cccc(-c2cc(C(=O)N3CCCCC3C)no2)c1 (stereo not drawn),inactive
14,O=C(CN1C(=O)NC2(CCCCCC2)C1=O)Nc1ccc(Cl)c([N+](=O)[O-])c1,"inconclusive [inhibitor, single point]"
15,Cc1ccc(S(=O)(=O)N(C)C)cc1NC(=O)C(C)[N+]12CCN(CC1)CC2 (stereo not drawn),inactive
16,O=C(NCCNc1ccc([N+](=O)[O-])cc1Cl)c1ccccc1F,"inconclusive [inhibitor, single point]"
17,O=C(c1ccc(CSc2ccc(Cl)cc2)cc1)N1CCOCC1,"inconclusive [inhibitor, single point]"
18,CCOC(=O)N1CCN(C(=O)CSCC(=O)Nc2nc(-c3ccc4c(c3)OCO4)cs2)CC1,"inconclusive [inhibitor, full curve]"
19,CC(c1ccccc1)N1CCN(C(=O)CCl)CC1 (stereo not drawn),"inconclusive [inhibitor, single point]"
20,CCN(CC)CCN(C(=O)C1=COCCO1)c1nc2ccc(C)cc2s1,"inconclusive [inhibitor, single point]"
21,CCOc1ccccc1NC(=O)CN(c1ccc(C)cc1)S(=O)(=O)c1c(C)noc1C,"inconclusive [inhibitor, partial curve, poor fit]"
22,C[C@@H](C(=O)Nc1ccc2c(c1)OCCO2)n1c(=O)[nH]c2ccccc2c1=O,inactive
23,Cc1cnc(C(=O)OCC(=O)Nc2c(Cl)cc(Cl)cc2Cl)cn1,inactive
24,CC1CCc2nc3ccccc3c(C(=O)OCC(=O)N(C)C3CCS(=O)(=O)C3)c2C1 (stereo not drawn),"inconclusive [inhibitor, full curve]"
25,Cc1ccc(Oc2ccc(S(=O)(=O)NCC(C)(C)N3CCOCC3)cc2)cc1,"inconclusive [inhibitor, single point]"

row,SMILES,Potency
1,O=C(Cn1nnc(-c2ccccc2-n2cnnn2)n1)NCc1ccccc1,"inconclusive [inhibitor, single point]"
2,CCOC(=O)N1CCN(S(=O)(=O)c2ccc(C(=O)Nc3sc4c(c3C(N)=O)CC(C)(C)NC4(C)C)cc2)CC1,inactive
3,CC(C)(C)c1ccc(Cn2c(=O)cnc3ccccc32)cc1,"inconclusive [inhibitor, single point]"
4,Cc1ccc(CSc2nnc(-c3cccc(S(=O)(=O)N4CCOCC4)c3)n2CC(C)C)cc1,"inconclusive [inhibitor, single point]"
5,COc1ccc(C(=O)NCc2ccc(C(=O)O)o2)cc1,inactive
6,O=C(Nc1cccnc1)c1ccc(Oc2ccccc2)cc1,"inconclusive [inhibitor, partial curve]"
7,O=C(/C=C/c1ccccc1[N+](=O)[O-])N1CCCCC1,inactive
8,Cc1ccc(C)c(N2CCN(C(=O)CCCN3C(=S)NC(C)(C)CC3C)CC2)c1 (stereo not drawn),active: 10 µM
9,Cc1ccc2nc(-c3ccncc3)cc(C(=O)Nc3ccc(OC(F)F)cc3)c2c1,active: 8.91 µM
10,Cc1cc(Br)ccc1OCCCCN1CCC(C)CC1,active: 12.6 µM
11,CCN1C(=O)CSc2ccc(C(=O)NC3CCCCC3)cc21,"inconclusive [inhibitor, partial curve]"
12,CCCNC(=O)COc1ncnc2sccc12,inactive
13,Cc1cc(Nc2cccc(Cl)c2)c2ccccc2n1,"inconclusive [inhibitor, partial curve]"
14,Cc1cc(C(=O)OCC(=O)NCc2ccco2)c(C)n1-c1ccccc1,"inconclusive [inhibitor, full curve]"
15,CCCCN(CCCC)CC(O)Cn1c2ccccc2c(=O)c2ccccc21 (stereo not drawn),"inconclusive [inhibitor, partial curve]"
16,CCCCSC1=C(C#N)C(c2ccccc2C)C(C(=O)OCC)C(=O)N1 (stereo not drawn),"inconclusive [inhibitor, single point]"
17,Nc1ncnc(Sc2ncccn2)c1[N+](=O)[O-],"inconclusive [inhibitor, single point]"
18,COc1ccc(CCC(=O)Nc2cc(Cl)ccc2N2CCN(C)CC2)cc1,"inconclusive [inhibitor, full curve, poor fit]"
19,O=C(COc1ccc(C(=O)Nc2ccc(Cl)cc2)cc1)NCc1ccccc1,"inconclusive [inhibitor, partial curve]"
20,Cc1ccc(-n2c(C)cc(C(=O)CSc3nncs3)c2C)cc1,"inconclusive [inhibitor, partial curve, poor fit]"
21,C=CCc1cccc(CNc2nc3ccccc3n2CCC)c1O,"inconclusive [inhibitor, full curve]"
22,CCc1ccc(C(=O)Nc2nc(C)cs2)s1,inactive
23,COc1ccccc1/C=N/NC(=O)CN(C1=NS(=O)(=O)c2ccccc21)c1ccccc1,inactive
24,Cc1c(Cl)c([N+](=O)[O-])nn1CCCC(=O)N1CCN(c2ccccc2)CC1,"inconclusive [inhibitor, single point]"
25,Cc1cc(/C=C2\SC(=S)N(C)C2=O)c(C)n1-c1ccccc1O,active: 7.08 µM

row,SMILES,Potency
1,O=C(NC1CCN(Cc2ccccc2)CC1)c1cccc(S(=O)(=O)Nc2ccc(Br)cc2)c1,"inconclusive [inhibitor, single point]"
2,O=C(Cc1ccccc1)Nc1ccccc1C(=O)N1CCCCC1,inactive
3,O=C(COC(=O)c1c2ccccc2cc2ccccc12)Nc1ncc(C(F)(F)F)cc1Cl,"inconclusive [inhibitor, single point]"
4,CCn1c(=O)c2cc(C(=O)NCCCOC)sc2c2ccccc21,"inconclusive [inhibitor, partial curve]"
5,COc1ccc(NC(=S)N(CCN(C)C)C(C)c2ccco2)cc1Cl (stereo not drawn),"inconclusive [inhibitor, single point]"
6,O=C(/C=C/c1cccc(Cl)c1)Nc1ccncc1,inactive
7,CCCCCn1c(CN2CCN(C(=O)c3ccco3)CC2)nc2c1c(=O)n(C)c(=O)n2C,inactive
8,CSc1ccc(/C=C(\C#N)C(=O)NC2CCCCC2C)cc1 (stereo not drawn),"inconclusive [inhibitor, single point]"
9,O=[N+]([O-])c1ccc(N/N=C/c2ccc[nH]2)cc1,active: 1 µM
10,CC1(C(=O)N2CCN(C(=O)c3ccco3)CC2)CC1(Br)Br (stereo not drawn),inactive
11,CC(C)n1c(-c2ccc(N(C)C)cc2)nc2ccccc21,"inconclusive [inhibitor, single point]"
12,CC(=O)NCc1ccc(-c2csc(-c3cccs3)n2)cc1,"inconclusive [inhibitor, single point]"
13,O=C(Nc1cccc(-c2nn[nH]n2)c1)c1csc2c1CCCC2,inactive
14,CC1(C)Cc2c(c(N3CCOCC3)nc3snc(N)c23)CO1,"inconclusive [inhibitor, single point]"
15,O=C(CN1CCN(c2ccc(C(F)(F)F)cn2)CC1)NCc1ccc2c(c1)OCO2,"inconclusive [inhibitor, single point]"
16,CCn1c(C)cc(/C=C2/SC(=O)N(C(C)C(=O)OC)C2=O)c1C (stereo not drawn),"inconclusive [inhibitor, single point]"
17,Cc1cc2cc(CCNC(=O)c3ccc(C)c([N+](=O)[O-])c3)c(=O)[nH]c2cc1C,inactive
18,COC(=O)c1ccc(S(=O)(=O)N(Cc2ccccc2)Cc2ccccc2)n1C,inactive
19,Cc1cc(C(=O)N2CCN(c3ccc([N+](=O)[O-])cc3)CC2)c(C)o1,"inconclusive [inhibitor, single point]"
20,COc1ccc(-c2cc(C(F)(F)F)n3nc(C(=O)Nc4c(C)n(C)n(-c5ccccc5)c4=O)cc3n2)cc1,"inconclusive [inhibitor, partial curve]"
21,CCCCn1c(SCc2ccc(C(=O)OC)o2)nc2cc(S(N)(=O)=O)ccc21,active: 2.51 µM
22,CCN(Cc1ccccc1)c1ccc(/C=N/N2CCOCC2)cc1,inactive
23,O=C(O)CCc1ccc(-c2ccc(Cl)cc2)n1CC(=O)Nc1ccccc1,inactive
